Source: the supplement of paper PMC10369915
The other results are listed elsewhere or left out. Cut-off read from the data, not from the text of the source: active = 3.2 or more and inactive = the rest. Only a few entries rise above the background.

These binders were tested against SHP2 C-SH2 domain E139D (assay: enrichment score (SH2-bound / input frequency) (ratio); bacterial display of known human phosphotyrosine sites (pTyr-Var adds point mutants) read by sequencing; higher = stronger binding; tyrosines were phosphorylated by kinases first). Conditions: peptide library: Human pTyr.
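Note: displayed peptides selected on beads carrying the immobilized SH2 domain, with library peptides lacking any tyrosine serving as negative controls.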

Enrichment score, inactive:
SKDWPCNYDWDSDDD [MAGH1_HUMAN_195] 1.06
EKIDDPIYGTAAVDH [MAGI2_HUMAN_362_YA] 0.725
SQPPATDYVSTRWAR [MAK_HUMAN_159_YA] 1.22
GKENRLCYYIGATDD [MANF_HUMAN_76] 1.3
EHGSQGTYSNTKENG [MAP2_HUMAN_67] 0.81
MDSYSGPYGDMRLET [ANDR_HUMAN_535] 0.622
EYVATRWYRAPEIML [MAPK3_HUMAN_210] 1.34
ANYDGKDYDPVAARQ [MARE1_HUMAN_124] 0.659
ANADGKEYDPVEARQ [MARE2_HUMAN_167_YA] 0.658

Each binder was assayed against SHP2 C-SH2 domain wild-type in the same assay as above. Conditions: peptide library: Human pTyr.

Enrichment score, inactive:
SKDWPCNYDWDSDDD [MAGH1_HUMAN_195] 1.05
EKIDDPIYGTAAVDH [MAGI2_HUMAN_362_YA] 0.7
SQPPATDYVSTRWAR [MAK_HUMAN_159_YA] 0.945
GKENRLCYYIGATDD [MANF_HUMAN_76] 1.4
EHGSQGTYSNTKENG [MAP2_HUMAN_67] 0.696
MDSYSGPYGDMRLET [ANDR_HUMAN_535] 0.481
EYVATRWYRAPEIML [MAPK3_HUMAN_210] 1.12
ANYDGKDYDPVAARQ [MARE1_HUMAN_124] 0.552
ANADGKEYDPVEARQ [MARE2_HUMAN_167_YA] 0.704

Each binder was assayed against SHP2 N-SH2 domain L43F in the same assay as above. Conditions: peptide library: Human pTyr.

Enrichment score, inactive:
SKDWPCNYDWDSDDD [MAGH1_HUMAN_195] 0.969
EKIDDPIYGTAAVDH [MAGI2_HUMAN_362_YA] 0.668
SQPPATDYVSTRWAR [MAK_HUMAN_159_YA] 0.834
GKENRLCYYIGATDD [MANF_HUMAN_76] 1.1
EHGSQGTYSNTKENG [MAP2_HUMAN_67] 0.739
MDSYSGPYGDMRLET [ANDR_HUMAN_535] 0.55
EYVATRWYRAPEIML [MAPK3_HUMAN_210] 1.09
ANYDGKDYDPVAARQ [MARE1_HUMAN_124] 0.519
ANADGKEYDPVEARQ [MARE2_HUMAN_167_YA] 0.855

These binders were tested against SHP2 N-SH2 domain T42A in the same assay as above. Conditions: peptide library: Human pTyr.

Enrichment score, inactive:
SKDWPCNYDWDSDDD [MAGH1_HUMAN_195] 0.966
EKIDDPIYGTAAVDH [MAGI2_HUMAN_362_YA] 0.662
SQPPATDYVSTRWAR [MAK_HUMAN_159_YA] 0.887
GKENRLCYYIGATDD [MANF_HUMAN_76] 1.47
EHGSQGTYSNTKENG [MAP2_HUMAN_67] 1.05
MDSYSGPYGDMRLET [ANDR_HUMAN_535] 0.572
EYVATRWYRAPEIML [MAPK3_HUMAN_210] 1.09
ANYDGKDYDPVAARQ [MARE1_HUMAN_124] 0.54
ANADGKEYDPVEARQ [MARE2_HUMAN_167_YA] 0.643

The binders below were run against SHP2 N-SH2 domain T52S in the same assay as above. Conditions: peptide library: Human pTyr.

Enrichment score, inactive:
SKDWPCNYDWDSDDD [MAGH1_HUMAN_195] 1.15
EKIDDPIYGTAAVDH [MAGI2_HUMAN_362_YA] 0.726
SQPPATDYVSTRWAR [MAK_HUMAN_159_YA] 1.1
GKENRLCYYIGATDD [MANF_HUMAN_76] 1.47
EHGSQGTYSNTKENG [MAP2_HUMAN_67] 0.856
MDSYSGPYGDMRLET [ANDR_HUMAN_535] 0.537
EYVATRWYRAPEIML [MAPK3_HUMAN_210] 1.09
ANYDGKDYDPVAARQ [MARE1_HUMAN_124] 0.494
ANADGKEYDPVEARQ [MARE2_HUMAN_167_YA] 0.78

What follows are binders tested against SHP2 N-SH2 domain wild-type in the same assay as above. Conditions: peptide library: Human pTyr.

Enrichment score, inactive:
SKDWPCNYDWDSDDD [MAGH1_HUMAN_195] 1.41
EKIDDPIYGTAAVDH [MAGI2_HUMAN_362_YA] 0.785
SQPPATDYVSTRWAR [MAK_HUMAN_159_YA] 1.11
GKENRLCYYIGATDD [MANF_HUMAN_76] 1.88
EHGSQGTYSNTKENG [MAP2_HUMAN_67] 0.733
MDSYSGPYGDMRLET [ANDR_HUMAN_535] 0.442
EYVATRWYRAPEIML [MAPK3_HUMAN_210] 1.29
ANYDGKDYDPVAARQ [MARE1_HUMAN_124] 0.563
ANADGKEYDPVEARQ [MARE2_HUMAN_167_YA] 0.703
